Among all 360,000 compounds or so, about 520 (0.14%) were called active. This list was built around the results that the source calls inconclusive (neither active nor inactive); the mix of calls is not that of the screen. Calls follow the shape of the dose curve; as a rule, active = well fitted inhibition curve with a large enough effect; inconclusive = small, poorly fitted or top-dose-only effect; inactive = no such curve, though single readings can be large or run the other way. Where the call is inconclusive, the potency comes from a doubtful curve fit.
What follows are molecules tested against Rap guanine nucleotide exchange factor 3 (Homo sapiens) (UniProt O95398) (assay: qHTS for Antagonist of cAMP-regulated guanine nucleotide exchange factor 3 (EPAC1): primary screen). Details: EPAC1 GEF assay, Rap1b-BODIPY-GDP exchange fluorescence; activity change, negative = inhibition: at 115 µM (top of the series).
Chain of UniProt O95398 (O95398 whole entry, looked up): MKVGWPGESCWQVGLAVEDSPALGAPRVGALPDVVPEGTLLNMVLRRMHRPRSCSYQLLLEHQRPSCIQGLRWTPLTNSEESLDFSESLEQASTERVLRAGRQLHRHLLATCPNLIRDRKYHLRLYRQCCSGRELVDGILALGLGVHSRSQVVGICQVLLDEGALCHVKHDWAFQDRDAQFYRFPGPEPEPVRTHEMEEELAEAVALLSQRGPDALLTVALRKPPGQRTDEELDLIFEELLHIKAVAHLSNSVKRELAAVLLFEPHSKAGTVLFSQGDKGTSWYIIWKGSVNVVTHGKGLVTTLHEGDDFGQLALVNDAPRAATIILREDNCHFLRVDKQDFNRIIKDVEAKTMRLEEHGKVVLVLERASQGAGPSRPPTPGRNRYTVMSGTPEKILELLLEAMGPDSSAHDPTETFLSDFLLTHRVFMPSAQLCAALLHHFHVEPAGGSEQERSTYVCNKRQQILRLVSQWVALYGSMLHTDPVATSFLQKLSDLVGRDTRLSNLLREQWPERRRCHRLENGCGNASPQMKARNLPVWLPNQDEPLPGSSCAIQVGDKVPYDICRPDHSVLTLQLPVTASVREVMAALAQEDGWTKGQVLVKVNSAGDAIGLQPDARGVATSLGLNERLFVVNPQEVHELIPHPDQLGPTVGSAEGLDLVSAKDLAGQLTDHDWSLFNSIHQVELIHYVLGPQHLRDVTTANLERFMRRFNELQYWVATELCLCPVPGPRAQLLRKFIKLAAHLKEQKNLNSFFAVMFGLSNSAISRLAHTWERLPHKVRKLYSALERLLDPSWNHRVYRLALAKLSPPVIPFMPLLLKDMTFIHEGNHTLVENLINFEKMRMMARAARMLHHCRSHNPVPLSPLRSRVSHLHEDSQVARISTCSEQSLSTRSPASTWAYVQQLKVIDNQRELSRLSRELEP
Also: nearly all actives have a fitted effect of over 50% in size.
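For activity change, negative = inhibition in this document: plate controls were vehicle for no effect and positive control for full effect.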
Potency is read from the fitted curve at half-maximal effect; tags tell the direction and shape of the fitted curve.

Potency, inactive:
Oc1c(Br)cc(Br)cc1CNc1ccc(F)cc1
CCc1nc2c(OCc3c(C)noc3C)cccn2c1N(C=O)Cc1ccccc1
O=C(Nc1ccc2ncccc2c1)c1ccccc1Cl
COc1ccc(CCN2CC(C(=O)NCc3nc4ccccc4n3C)CCC2=O)cc1 (stereo not drawn)
COc1ccc(CCNS(=O)(=O)c2cc3c4c(c2)C(C)C(=O)N4CCC3)cc1OC (stereo not drawn)
CC(=O)C1=C(C)N=c2s/c(=C/c3ccc4c(c3)OCO4)c(=O)n2C1c1ccc(N(C)C)cc1 (stereo not drawn)
CNc1ccc(/C=C\CCCO)cn1
CCOc1ccc(Nc2nc(N)nc(CN(C)C3CCCCC3)n2)cc1
O=S1(=O)CC(N2CCN(CCO)CC2)CN1Cc1cn(Cc2cccc(Cl)c2)nn1 (stereo not drawn)
Cc1nnc(SCc2cccc3ccccc23)s1
CCC(=O)Nc1ccccc1C(=O)OCC(=O)c1ccccc1

Potency, inconclusive:
Cc1ccc(OCC(=O)Nc2ccc(C)c(S(=O)(=O)N3CCCCCC3)c2)c([N+](=O)[O-])n1 79.4 µM [inhibitor, single point]
CCC(=O)Nc1cccc(C(=O)/C=C/c2ccc(F)cc2)c1 5.62 µM [inhibitor, full curve, poor fit]
COc1ccc(S(=O)(=O)c2c(O)cc(C)c(NS(=O)(=O)c3ccccc3)c2C)cc1 63.1 µM [inhibitor, partial curve, poor fit]
CC(=O)c1sc2nc(-c3ccco3)ccc2c1N 8.91 µM [inhibitor, full curve]
COc1ccccc1-n1c(SCC(=O)O)nc2c(sc(=S)n2-c2ccc(Cl)c(C)c2)c1=O 50.1 µM [inhibitor, single point]
O=C(COc1ccc(=O)n(-c2ccccc2)n1)Nc1ccccc1 14.1 µM [inhibitor, single point]
Cc1c(C#N)c2ccccc2n1CC(=O)NC(C)c1ccccc1 (stereo not drawn) 10 µM [inhibitor, partial curve]
COc1cc(/C=C(/C#N)C(=O)Nc2ccccc2)c(Br)cc1OCc1ccc(C(=O)O)cc1 35.5 µM [inhibitor, partial curve]
Cc1sc(NC(=S)NC(=O)c2ccc(C(C)(C)C)cc2)c(C#N)c1C 28.2 µM [inhibitor, single point]
O=S(=O)(/C=C/c1ccccc1)N1CCN(Cc2ccccc2)CC1 3.55 µM [inhibitor, full curve, poor fit]
COc1cc(/C=C2\SC(=S)N(NC(=O)c3ccc(O)cc3)C2=O)ccc1O 89.1 µM [inhibitor, single point]
Fc1ccc(CN2CCC(Cc3ccccc3)CC2)cc1F 17.8 µM [inhibitor, full curve, poor fit]
COc1ccc(/C=N/NC(=O)CC(=O)NC2CCCCC2)cc1 56.2 µM [inhibitor, partial curve]
COc1ccc(-c2c(-c3cc(OC)cc(OC)c3)n(C)c3ccc(-c4cccc5[nH]ccc45)cc23)cc1 22.4 µM [inhibitor, full curve, poor fit]
O=C(COC(=O)c1ccc(O)cc1)Nc1ccc(S(=O)(=O)N2CCCC2)cc1 79.4 µM [inhibitor, single point]
CC(C)CN1CCN(Cc2cccn2-c2cccnc2)CC1CCO (stereo not drawn) 63.1 µM [inhibitor, partial curve, poor fit]
Cc1cc(C)n(C(=O)CCC(=O)NCc2ccccc2)n1 31.6 µM [inhibitor, single point]
CCc1ccccc1Oc1coc2cc(O)ccc2c1=O 2.82 µM [inhibitor, full curve, poor fit]
O=C(CCc1ccccc1)n1nc(-c2ccco2)nc1SCc1ccccc1 79.4 µM [inhibitor, single point]
Cc1cccc(Nc2nc(N)c([N+](=O)[O-])c(N3CC(C)CC(C)C3)n2)c1 (stereo not drawn) 89.1 µM [inhibitor, single point]
CC(C)c1cc(C(C)C)c(S(=O)(=O)NC(c2ccccn2)C23CC2C3)c(C(C)C)c1 (stereo not drawn) 35.5 µM [inhibitor, partial curve, poor fit]
COc1cc(C2C3CN(C)CC=C3C(C#N)=C(N)C2(C#N)C#N)ccc1OC(C)C (stereo not drawn) 39.8 µM [inhibitor, partial curve]
Nc1cc(Cl)ccc1C(=O)OCC(=O)NC1CCCCCCC1 100 µM [inhibitor, single point]
CC(C)(C)c1cc(OS(C)(=O)=O)ccc1O 89.1 µM [inhibitor, single point]
CCCCC(NC(=O)Cc1c(C)c2cc3c(-c4ccccc4)coc3c(C)c2oc1=O)C(=O)O (stereo not drawn) 79.4 µM [inhibitor, partial curve]
Cc1[nH][nH]c(=O)c1C(c1ccc([N+](=O)[O-])cc1)c1c(C)[nH][nH]c1=O 100 µM [inhibitor, single point]
O=C(Cn1ccc(C(F)(F)F)n1)Nc1cccc(S(=O)(=O)N2CCCCC2)c1 89.1 µM [inhibitor, single point]
CC/C(C)=N/Oc1nc(C)cc(C)n1 89.1 µM [inhibitor, single point]
Cc1cc(C(=O)N[C@H](c2ccccc2)[C@@]2(C)C[C@@H]2[C@@H](C)C(=O)Nc2ccc3ccccc3c2)n(C)n1 44.7 µM [inhibitor, partial curve]
COc1ccc(C(=O)c2c(C(F)(F)F)oc3c2C(=O)c2ccccc2C3=O)cc1OC 25.1 µM [inhibitor, single point]
Cc1oc(C(C)(C)C)cc1C(=O)Nc1ccc2c(c1)OCCO2 56.2 µM [inhibitor, partial curve]
C=CCn1c(SCC(=O)Nc2sccc2C(N)=O)nc2sc(CC)cc2c1=O 35.5 µM [inhibitor, full curve]
CC(=O)Nc1ccc(NC(=S)NC(=O)C2CC2)cc1 100 µM [inhibitor, partial curve, poor fit]
CC1=C/C(=C(/c2cc(C)c(O)c(Br)c2)c2ccccc2S(=O)(=O)O)C=C(Br)C1=O 3.55 µM [inhibitor, full curve, poor fit]
CN1c2ccccc2C(C)(C)C12C=Nc1c(ccc3ccccc13)O2 (stereo not drawn) 89.1 µM [inhibitor, single point]
CCc1ccc2nc3sc(C(=O)Nc4nnc(CC)s4)c(N)c3cc2c1 28.2 µM [inhibitor, full curve, poor fit]
CCCc1cc(C(=O)Cc2ccc(F)cc2)c(O)cc1O 50.1 µM [inhibitor, partial curve]
O=c1oc2c(O)c(O)cc3c(=O)oc4c(O)c(O)cc1c4c23 10 µM [inhibitor, full curve]
CCNC(=O)NC1c2ccccc2CSc2ccccc21 (stereo not drawn) 70.8 µM [inhibitor, single point]
COc1cccc(C2c3cc4c(cc3OC(N3CCOCC3)C2C)OCO4)c1O (stereo not drawn) 89.1 µM [inhibitor, single point]
CC1=C/C(=C(\c2cc(C)c(O)c(Br)c2)c2ccccc2S(=O)(=O)O)C=C(Br)C1=O 50.1 µM [inhibitor, partial curve, poor fit]
COc1ccc(-c2cc(C(=O)NC3CCCC3)c3ccccc3n2)cc1 100 µM [inhibitor, single point]
COc1ccc(-c2nn(-c3ccccc3)cc2/C=C2/SC(=S)N(CCC(=O)O)C2=O)cc1 17.8 µM [inhibitor, full curve, poor fit]
COc1ccc(/C=N/NC(=O)c2cc(-c3ccccc3OC(C)C)nc3ccccc23)cc1CN1CCOCC1 100 µM [inhibitor, single point]
CCc1ccc(S(=O)(=O)Nc2c(NC3CCCCC3)c3ccccc3oc2=O)cc1 2.82 µM [inhibitor, full curve, poor fit]
Cc1cc(NC(=O)CSCC(=O)N(c2cccc(Cl)c2)C(C(=O)NC2CCCCC2)c2ccc(O)c(O)c2)no1 (stereo not drawn) 56.2 µM [inhibitor, partial curve]
Cc1c(C(=O)Nc2cccc(F)c2)cnn1-c1ccccc1 100 µM [inhibitor, single point]
CCOc1ccccc1N(CC(=O)NCc1ccccc1)C(=O)CCC(=O)Nc1cc(C)ccn1 100 µM [inhibitor, single point]
Cc1cc(C)c(C)c(S(=O)(=O)Nc2cccc(S(=O)(=O)Nc3ccccc3C(=O)O)c2)c1C 44.7 µM [inhibitor, partial curve]
CC(C)(C)c1nc2c(C#N)c(-c3ccc(Cl)cc3)ccn2n1 17.8 µM [inhibitor, full curve, poor fit]

Activity change, negative = inhibition, inconclusive:
Cc1ccc(-c2nc3cccnc3s2)cc1NS(=O)(=O)c1ccc2c(c1)CCCC2 -16.4% [inhibitor]
O=C(Nc1ccc2c(c1)OCCO2)c1ccc(Cl)c(S(=O)(=O)N2CCCCC2)c1 -17.8% [inhibitor]
